Source: the DeepSol protein solubility set

Assay: soluble on expression in E. coli; label from the status in PepcDB or PDB records

Row | Sequence | soluble on expression in E. coli
1 | ASMTDQQAEARAFLSEEMIAEFKAAFDMFDADGGGDISTKELGTVMRMLGQNPTKEELDAIIEEVDEDGSGTIDFEEFLVMMVRQMKEDAKGKSEEELANCFRIFDKNADGFIDIEELGEILRATGEHVTEEDIEDLMKDSDKNNDGRIDFDEFLKMMEGVQ | soluble
2 | ASVPREVEHFSRYSPSPLSMKQLLDFGSENACERTSFAFLRQELPVRLANILKEIDILPTQLVNTSSVQLVKSWYIQSLMDLVEFHEKSPDDQKALSDFVDTLIKVRNRHHNVVPTMAQGIIEYKDACTVDPVTNQNLQYFLDRFYMNRISTRMLMNQHILIFSDSQTGNPSHIGSIDPNCDVVAVVQDAFECSRMLCDQYYLSSPELKLTQVNGKFPDQPIHIVYVPSHLHHMLFELFKNAMRATVEHQENQPSLTPIEVIVVLGKEDLTIKISDRGGGVPLRIIDRLFSYTYSTAPTPVMDNSRNAPLAGFGYGLPISRLYAKYFQGDLNLYSLSGYGTDAIIYLKALSSESIEKLPVFNKSAFKHYQMSSEADDWCIPSREPKNLAKEVAM | soluble
3 | GERVKEDSFCCVISMHDGIVLYTTPSITDVLGYPRDMWLGRSFIDFVHLKDRATFASQITTGIPIAESRGSVPKDAKSTFCVMLRRYRGLKSGGFGVIGRPVSYEPFRLGLTFREAPEEARPDNYMVSNGTNMLLVICATPIKSSYKVPDEILSQKSPKFAIRHTATGIISHVDSAAVSALGYLPQDLIGRSIMDFYHHEDLSVMKETYETVMKKGQTAGASFCSKPYRFLIQNGCYVLLETEWTSFVNPWSRKLEFVVGHHRVFQGPKQCNVFEAAPTCKLKISEEAQSRNTRIKEDIVKRLAETVSRPSDTVKQEVSRRCQALASFMETLMDEVSRADLKLELPHENELTVSERDSVMLGEISPHH | soluble
4 | MATVYDVPADLLIKRVAERLKDMVAPPEWAKYVKTGVHKERSPEQDDWWYLRLASIFRRVYIDGPVGIERLRTFYGGRKRRGSKPPKFRKGSGAIVRNALHQLEQLGFVKKTREGRVVTPMGRSFLDKVATELKSELVSEIPALEKY | not soluble
5 | MEGLKQLKDLPAETPDGKKVMLAANIGTPKDVASALANGAEGVGLFRTEFLYMDRNSLPSEEEQFEAYKEVVEKMGGRPVTIRTLDIGGDKELPYLDMPKEMNPFLGYRAIRLCLDRPDIFKTQLRAILRASAYGNVQIMYPMISSVEEVRKANSILEEVKAELDREGVKYDKEIKVGIMVEIPSAAVTADILAKEVDFFSIGTNDLTQYTLAVDRMNEHVKEYYQPFHPAILRLVKMVIDAAHKEGKFAAMCGEMAGDPLAAVILLGLGLDEFSMSATSIPEIKNIIRNVEYEKAKEIAEKALNMSEAREIEKMMKDVIKDIG | soluble
6 | MGSDKIHHHHHHMITIKKGLDVPVKGAPQQVIHDGPSIKTVATLGEEFVGMRPTMFVKVGDRVKKGQVIFEDKKNPGVIFTAQAAGVVKEINRGEKRVLQSVVIDVDGYDQETFTVYPATEFASLARENVVKNLVDSGLWTALRTRPFSKVPAIDSEPSAIFVSAMDTNPLAANPEIVIGEQSEAFKNGLTILSRLTSGEVFVSKAPGANIPVDSNATVTEFAGKHPAGLVGTHIHFLKSASAERFVWHVGYQDVIAIAKLFTTGEIDNTRVISLAGPAATNPRLVRTVLGASTAELSAGETAEGELRVVSGSLLMGATASAVHGYLGRYNVQVSLILEGREKEFIGYMYPGPNKFSVTRAYMSHFFSSKLFSMTTTTNGSSRAMVPIGNFERVMPLDILPTLFLRDICSGDTDGAQQLGALELDEEDLALCTFVCPGKTDYGVILRDCLTTIEKEG | not soluble
7 | QVQLVQSGAEVKKPGSSVKVSCKASGGTFSNYAINWVRQAPGQGLEWMGNIEPYFGTANYAQKFQGRVTITADESTSTAYMELSSLRSEDTAVYYCARYFMSYKHLSDYWGQGTLVTVSSASTKGPSVFPLAPSSKSTSGGTAALGCLVKDYFPEPVTVSWNSGALTSGVHTFPAVLQSSGLYSLSSVVTVPSSSLGTQTYICNVNHKPSNTKVDKKVEPKSEFEQKLISEEDLNGAPHHHHHH | soluble
